# Results published in ChEMBL document CHEMBL4888484, “Replenishing the malaria drug discovery pipeline: Screening and hit evaluation of the MMV Hit Generation Library 1 (HGL1) against asexual blood stage Plasmodium falciparum ,using a nano luciferase reporter read-out” (2022).
# Screen size: about 150,000 compounds; about 540 (0.36%) showed an effect of 50% or more. This is one part of the list.
# Tested on: Plasmodium falciparum
# Assay: Primary screen in NF54 nanoGlo assay, in single point, at 2uM, 72h; a lower Z score goes with more inhibition
# Assay type: functional, Erythrocyte
# Conditions: timepoint 72 hour
Compound,% Inhibition [%],Z score
Cc1ccccc1NCC(=O)Nc1ncc(Cc2cccc3ccccc23)s1,5,-0.69
Cc1c(C(=O)Nc2cccnc2-n2cccn2)oc2ccccc12,6,-0.76
CC(C)(C)OC(=O)NC1(c2noc(-c3ccccc3)n2)CCOCC1,-1,0.18
Cc1cccc2c1N(Cc1ccc(OCc3ccccc3)cc1)C(=O)C2=O,-4,0.44
O=C1CS(=O)(=O)[C@@H](c2ccc(F)cc2)N1c1cccc(F)c1,-9,0.84
O=c1[nH]ccn2nc(C(F)(F)F)cc12,-3,0.54
Cc1ncc2ccc(C(=O)NC3CCN(C(=O)c4cc(Cl)c[nH]4)CC3)cn12,-37,4.29
O=C(Nc1ccc(C(F)(F)F)cc1)C(=O)c1ccc[nH]1,-4,0.34
Cn1ccnc1[C@H](NC(=O)c1cccc(S(=O)(=O)N2CCOCC2)c1)c1ccc(Cl)cc1,3,-0.47
Cc1ccc(NC(=O)NC[C@H]2CCCN2CC(F)F)c(C)n1,-5,0.9
CC(C)c1nnc(CNc2ccc(Cl)c(C(N)=O)c2)o1,16,-1.84
CC1CCN(C(=O)NCc2ccoc2)CC1C (stereo not given),-14,2.61
Cn1cc(C#N)cc1C(=O)N1CCCCCC1C1CCCCC1=O (stereo not given),-7,1.29
COC(=O)N1CCC[C@H]1C(=O)NC1CCCCC1,1,-0.13
CC(C)OC[C@@H](O)CN1CCn2c(cnc2C(F)(F)F)C1,-2,0.23
COCCc1nnc(NC(=O)Cc2ccc(C)cc2C)o1,-9,1.07
Fc1ccccc1Oc1cc(CNCc2ccsc2)ccn1,17,-2.75
Cn1cc(CCC(=O)OCCNc2cccnn2)cn1,2,-0.17
Cc1cc(CCNS(=O)(=O)Cc2ccccc2)nn1C,-1,0.24
COCC(=O)N1CCC([C@@H]2N(C(=O)OC(C)(C)C)CC2(C)C)CC1,-6,1.16
CCN(CC)CCNCc1ccccc1,-4,0.4
COC[C@@H]1OC[C@@]2(C)C3CC[C@@H](O)[C@@H](CC(=O)NCc4ccc(F)cc4)[C@]3(C)CC[C@H]2O1 (stereo not given in full),8,-0.92
Cc1ccc(O)c(C(=O)NC2CCOC(C3CC3)C2)c1 (stereo not given),-2,0.26
CNc1ccc(F)c(S(C)(=O)=O)c1,2,-0.21
CCOC(=O)N1CCN(C(=O)c2cn3c(n2)CC[C@H](c2ccc(F)cc2)C3)CC1,-23,2.23
O=C(CN(C(=O)c1ccc(F)cc1)C1CC1)Nc1nc(-c2ccccc2)cn1-c1ccc(C(F)(F)F)cc1,-9,1.4
CCCC[C@H]1C(=O)N(C)CCN1C(=O)c1ccc(-c2cc(N)ccn2)cc1,15,-2.14
COCCn1nnc2c1CCN(CC1CCC(C)O1)C2 (stereo not given),19,-2.42

Compound,% Inhibition [%],Z score
CC(C)(CNS(=O)(=O)c1cccs1)c1ccsc1,-7,1.28
Cc1cc(C)nc(NC2=NC(=O)CN2c2ccc(Cl)cc2Cl)n1,-4,0.53
C/C=C(\C)C(=O)N1CCC(N2CCC(C(=O)N3CCCC3)CC2)CC1,-12,1.74
O=S(=O)(Nc1cccc(C#Cc2cccs2)c1)c1ccc(F)c(F)c1,-8,1.11
NC(=O)C1CCC(C(=O)Nc2nc(C3CC3)cs2)CC1 (stereo not given),-13,2.48
O=C(NCc1ccco1)c1ccc(CN2CC(=O)N3CCCC[C@H]3C2=O)cc1,3,-0.54
CC[C@@H](C(N)=O)N1Cc2cccc(F)c2C1,-10,0.92
Cc1nc2sccn2c1CN[C@H]1CCCc2c1cnn2-c1ccc(C(C)(C)C)cc1,4,-0.52
CCCc1ccc(S(=O)(=O)N2CCC[C@H]2c2nc(-c3cccc(C)c3)no2)cc1,-10,1.51
COc1cccc(OC)c1C(=O)n1ccnc1,-7,1.05
CNc1snc(C)c1C(=O)N1CCN(C(=O)[C@@H]2CCCO2)CC1,-13,1.17
Cc1ccc(CNc2cc(C(=O)N3CCC[C@H](C(N)=O)C3)cc(S(=O)(=O)N(C)C)c2)s1,-7,0.82
O=C1CCCc2ccc(NC(=O)N3CCCC3)cc21,-10,1.14
COc1ccc(Cc2nc(-c3ccc4nnn(C(C)C)c4c3)no2)cc1,-7,1.12
CCOC1CC1NC(=O)[C@@H](O)Cc1ccccc1 (stereo not given in full),10,-1.33
COCCCCC(=O)N1CCC[C@H](N)[C@@H]1c1ccccc1OC,4,-0.43
Cc1nc2ccc(NC(=O)c3ccc4ncsc4c3)cc2s1,-6,1.01
Cc1cc(C(=O)N2CCO[C@H](c3cccnc3)C2)c(C)o1,-15,2.26
Cc1cnc(C(=O)N2CCC[C@H](N(C)C(=O)CCc3nccs3)C2)cc1C,-4,0.84
O=C(NC1CCC(CC2CCC(NC(=O)c3cnccn3)CC2)CC1)c1cnccn1 (stereo not given),-2,0.31
Cc1ccc(C)n1-c1ccc2c(c1)OCO2,-9,1.2
O=C(NCc1nc(-c2ccco2)n[nH]1)c1ccc2ccccc2n1,-6,0.72
CN(C)[C@@H](Cc1ccccc1)C(=O)N1CCC(C(=O)N2CCCCCC2)CC1,-11,1.43
CC(C)C(CNC(=O)C1CNC(=O)C1)Cc1ccccc1 (stereo not given),-6,0.65
CCc1nc(CN2C(=O)C(=O)N([C@@H](C)c3ccccc3)C2=O)no1,-11,1.43
CCOc1cccc(Cn2c(=O)c3sccc3n(CC(=O)N3CCCc4ccccc43)c2=O)c1,-6,0.9
Cc1n[nH]c([C@@H]2CCN(C(=O)c3cccnc3)CCN2C(=O)Cc2ccccc2)n1,-5,0.66
